{"source": "the supplement of paper PMC8728848", "assay_in_all_cases": "glycan array binding signal (z-score within array); higher = stronger binding", "conditions_in_all_cases": "glycan notation: IUPAC condensed, linker removed", "key": {"[1]": {"target": "Man(a1-3)[Man(a1-6)]Man(a1-6)[Man(a1-3)]Man", "procedure,_shortened": "(§1)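 The Consortium for Functional Glycomics database supplied 3228 glycan arrays, of which those lacking an available protein sequence were dropped. The binding signal, a within-array Z-score, was averaged across arrays of the same protein sequence and across linkers. Negative scores can be read as non-binding.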"}, "[2]": {"target": "Man(a1-3)[Man(a1-6)]Man(a1-6)[Man(a1-3)]Man(b1-4)GlcNAc(b1-4)GlcNAc", "procedure,_shortened": "as §1"}, "[3]": {"target": "Man(a1-3)[Man(a1-6)]Man(b1-4)GlcNAc(b1-4)GlcNAc", "procedure,_shortened": "as §1"}, "[4]": {"target": "Man(a1-3)[Man(a1-6)]Man(b1-4)GlcNAc(b1-4)[Fuc(a1-6)]GlcNAc", "procedure,_shortened": "as §1"}, "[5]": {"target": "Man(a1-6)Man", "procedure,_shortened": "as §1"}, "[6]": {"target": "Man(b1-4)GlcNAc", "procedure,_shortened": "as §1"}, "[7]": {"target": "MurNAc(b1-4)GlcNAc", "procedure,_shortened": "as §1"}, "[8]": {"target": "Neu5Ac(a2-3)Gal", "procedure,_shortened": "as §1"}, "[9]": {"target": "Neu5Ac(a2-3)Gal(b1-3)GalNAc", "procedure,_shortened": "as §1"}, "[10]": {"target": "Neu5Ac(a2-3)Gal(b1-3)GalNAc(b1-3)Gal(a1-4)Gal(b1-4)Glc", "procedure,_shortened": "as §1"}, "[11]": {"target": "Neu5Ac(a2-3)Gal(b1-3)GalNAc(b1-4)Gal(b1-4)Glc", "procedure,_shortened": "as §1"}, "[12]": {"target": "Neu5Ac(a2-3)Gal(b1-3)GalNAc(b1-4)[Neu5Ac(a2-3)]Gal(b1-4)Glc", "procedure,_shortened": "as §1"}, "[13]": {"target": "Neu5Ac(a2-3)Gal(b1-3)GalNAc(b1-4)[Neu5Ac(a2-8)Neu5Ac(a2-3)]Gal(b1-4)Glc", "procedure,_shortened": "as §1"}, "[14]": {"target": "Neu5Ac(a2-3)Gal(b1-3)GalNAc6S", "procedure,_shortened": "as §1"}, "[15]": {"target": "Neu5Ac(a2-3)Gal(b1-3)GlcNAc", "procedure,_shortened": "as §1"}, "[16]": {"target": "Neu5Ac(a2-3)Gal(b1-3)GlcNAc(b1-2)Man", "procedure,_shortened": "as §1"}, "[17]": {"target": "Neu5Ac(a2-3)Gal(b1-3)GlcNAc(b1-2)Man(a1-3)[GlcNAc(b1-4)][Neu5Ac(a2-3)Gal(b1-3)GlcNAc(b1-2)Man(a1-6)]Man(b1-4)GlcNAc(b1-4)GlcNAc", "procedure,_shortened": "as §1"}, "[18]": {"target": "Neu5Ac(a2-3)Gal(b1-3)GlcNAc(b1-2)Man(a1-3)[Neu5Ac(a2-3)Gal(b1-3)GlcNAc(b1-2)Man(a1-6)]Man(b1-4)GlcNAc(b1-4)GlcNAc", "procedure,_shortened": "as §1"}, "[19]": {"target": "Neu5Ac(a2-3)Gal(b1-3)GlcNAc(b1-2)[Neu5Ac(a2-3)Gal(b1-3)GlcNAc(b1-4)]Man(a1-6)[Neu5Ac(a2-3)Gal(b1-3)GlcNAc(b1-2)Man(a1-3)]Man(b1-4)GlcNAc(b1-4)GlcNAc", "procedure,_shortened": "as §1"}, "[20]": {"target": "Neu5Ac(a2-3)Gal(b1-3)GlcNAc(b1-3)Gal(b1-3)GlcNAc", "procedure,_shortened": "as §1"}, "[21]": {"target": "Neu5Ac(a2-3)Gal(b1-3)GlcNAc(b1-3)Gal(b1-4)GlcNAc", "procedure,_shortened": "as §1"}, "[22]": {"target": "Neu5Ac(a2-3)Gal(b1-3)GlcNAc(b1-3)GalNAc", "procedure,_shortened": "as §1"}, "[23]": {"target": "Neu5Ac(a2-3)Gal(b1-3)GlcNAc(b1-6)GalNAc", "procedure,_shortened": "as §1"}, "[24]": {"target": "Neu5Ac(a2-3)Gal(b1-3)GlcNAc6S", "procedure,_shortened": "as §1"}, "[25]": {"target": "Neu5Ac(a2-3)Gal(b1-3)[Fuc(a1-4)]GlcNAc", "procedure,_shortened": "as §1"}, "[26]": {"target": "Neu5Ac(a2-3)Gal(b1-3)[Fuc(a1-4)]GlcNAc(b1-3)Gal(b1-3)[Fuc(a1-4)]GlcNAc", "procedure,_shortened": "as §1"}, "[27]": {"target": "Neu5Ac(a2-3)Gal(b1-3)[Fuc(a1-4)]GlcNAc(b1-3)Gal(b1-4)[Fuc(a1-3)]GlcNAc", "procedure,_shortened": "as §1"}, "[28]": {"target": "Neu5Ac(a2-3)Gal(b1-3)[GlcNAc(b1-6)]GalNAc", "procedure,_shortened": "as §1"}, "[29]": {"target": "Neu5Ac(a2-3)Gal(b1-3)[Neu5Ac(a2-6)]GalNAc", "procedure,_shortened": "as §1"}, "[30]": {"target": "Neu5Ac(a2-3)Gal(b1-3)[Neu5Ac(a2-6)]GlcNAc(b1-3)[Fuc(a1-3)[Gal(b1-4)]GlcNAc(b1-6)]Gal(b1-4)Glc", "procedure,_shortened": "as §1"}, "[31]": {"target": "Neu5Ac(a2-3)Gal(b1-3)]Neu5Ac(a2-3)Gal(b1-4)]GlcNAc", "procedure,_shortened": "as §1"}, "[32]": {"target": "Neu5Ac(a2-3)Gal(b1-4)Glc", "procedure,_shortened": "as §1"}, "[33]": {"target": "Neu5Ac(a2-3)Gal(b1-4)GlcNAc", "procedure,_shortened": "as §1"}, "[34]": {"target": "Neu5Ac(a2-3)Gal(b1-4)GlcNAc(b1-2)Man", "procedure,_shortened": "as §1"}, "[35]": {"target": "Neu5Ac(a2-3)Gal(b1-4)GlcNAc(b1-2)Man(a1-3)[GlcNAc(b1-4)][Neu5Ac(a2-3)Gal(b1-4)GlcNAc(b1-2)Man(a1-6)]Man(b1-4)GlcNAc(b1-4)GlcNAc", "procedure,_shortened": "as §1"}, "[36]": {"target": "Neu5Ac(a2-3)Gal(b1-4)GlcNAc(b1-2)Man(a1-3)[Neu5Ac(a2-3)Gal(b1-4)GlcNAc(b1-2)Man(a1-6)]Man(b1-4)GlcNAc(b1-4)GlcNAc", "procedure,_shortened": "as §1"}, "[37]": {"target": "Neu5Ac(a2-3)Gal(b1-4)GlcNAc(b1-2)Man(a1-3)[Neu5Ac(a2-3)Gal(b1-4)GlcNAc(b1-2)Man(a1-6)]Man(b1-4)GlcNAc(b1-4)[Fuc(a1-6)]GlcNAc", "procedure,_shortened": "as §1"}, "[38]": {"target": "Neu5Ac(a2-3)Gal(b1-4)GlcNAc(b1-2)Man(a1-3)[Neu5Ac(a2-6)Gal(b1-4)GlcNAc(b1-2)Man(a1-6)]Man(b1-4)GlcNAc(b1-4)GlcNAc", "procedure,_shortened": "as §1"}}, "note": "This is one part of the list."}
{"binder": "Epa22 (Candida glabrata) (protein) MGSSHHHHHHSSGLVPRGSHMKRALSSQNPFGYPIGCSPQSTNVIPGLTMELYSYPIVSGTPPNCYDASYVDPEYPRTGYLKRKMIGKSTGVTGSLNYKFSVEKACMVKYGNLPAGYNYNEPLTVSNFTMLLYGYFKPQTSGIHTFFVNADDLLYINFGAGNAFDCCKREDSKFKLGEYVAYDIWHVDSSKNKVSLNLEKDVYYPIRMFFNNIGKDSSLDLSFSVNGAVEHITDFSGYLYSVPDQPDACPAPIGYDTTCK", "values": [{"measurement": "glycan array binding signal (z-score)", "setting": "[1]", "result": -0.395}, {"measurement": "glycan array binding signal (z-score)", "setting": "[2]", "result": -0.348}, {"measurement": "glycan array binding signal (z-score)", "setting": "[3]", "result": -0.387}, {"measurement": "glycan array binding signal (z-score)", "setting": "[4]", "result": -0.378}, {"measurement": "glycan array binding signal (z-score)", "setting": "[5]", "result": -0.371}, {"measurement": "glycan array binding signal (z-score)", "setting": "[6]", "result": -0.331}, {"measurement": "glycan array binding signal (z-score)", "setting": "[7]", "result": -0.42}, {"measurement": "glycan array binding signal (z-score)", "setting": "[8]", "result": -0.369}, {"measurement": "glycan array binding signal (z-score)", "setting": "[9]", "result": -0.346}, {"measurement": "glycan array binding signal (z-score)", "setting": "[10]", "result": -0.382}, {"measurement": "glycan array binding signal (z-score)", "setting": "[11]", "result": -0.191}, {"measurement": "glycan array binding signal (z-score)", "setting": "[12]", "result": -0.276}, {"measurement": "glycan array binding signal (z-score)", "setting": "[13]", "result": -0.312}, {"measurement": "glycan array binding signal (z-score)", "setting": "[14]", "result": -0.321}, {"measurement": "glycan array binding signal (z-score)", "setting": "[15]", "result": -0.303}, {"measurement": "glycan array binding signal (z-score)", "setting": "[16]", "result": -0.178}, {"measurement": "glycan array binding signal (z-score)", "setting": "[17]", "result": -0.387}, {"measurement": "glycan array binding signal (z-score)", "setting": "[18]", "result": -0.307}, {"measurement": "glycan array binding signal (z-score)", "setting": "[19]", "result": -0.362}, {"measurement": "glycan array binding signal (z-score)", "setting": "[20]", "result": -0.312}, {"measurement": "glycan array binding signal (z-score)", "setting": "[21]", "result": -0.371}, {"measurement": "glycan array binding signal (z-score)", "setting": "[22]", "result": 0.208}, {"measurement": "glycan array binding signal (z-score)", "setting": "[23]", "result": -0.395}, {"measurement": "glycan array binding signal (z-score)", "setting": "[24]", "result": -0.304}, {"measurement": "glycan array binding signal (z-score)", "setting": "[25]", "result": -0.41}, {"measurement": "glycan array binding signal (z-score)", "setting": "[26]", "result": -0.333}, {"measurement": "glycan array binding signal (z-score)", "setting": "[27]", "result": -0.409}, {"measurement": "glycan array binding signal (z-score)", "setting": "[28]", "result": -0.175}, {"measurement": "glycan array binding signal (z-score)", "setting": "[29]", "result": -0.349}, {"measurement": "glycan array binding signal (z-score)", "setting": "[30]", "result": -0.356}, {"measurement": "glycan array binding signal (z-score)", "setting": "[31]", "result": -0.291}, {"measurement": "glycan array binding signal (z-score)", "setting": "[32]", "result": -0.35}, {"measurement": "glycan array binding signal (z-score)", "setting": "[33]", "result": -0.324}, {"measurement": "glycan array binding signal (z-score)", "setting": "[34]", "result": -0.292}, {"measurement": "glycan array binding signal (z-score)", "setting": "[35]", "result": -0.384}, {"measurement": "glycan array binding signal (z-score)", "setting": "[36]", "result": -0.356}, {"measurement": "glycan array binding signal (z-score)", "setting": "[37]", "result": -0.315}, {"measurement": "glycan array binding signal (z-score)", "setting": "[38]", "result": -0.393}]}
